Test results as given in the supplement of paper PMC4967469.

Key:
Assay in all cases: Viability of human cancer cell lines after 72 h of drug (GDSC screen)
Gemcitabine = compound: Nc1ccn([C@@H]2O[C@H](CO)[C@@H](O)C2(F)F)c(=O)n1 [Gemcitabine]; details: top dose 1.024 µM
Description: (§1)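 Human cancer cell lines in 384-well plates, medium with 10% serum, drug for 72 h over a 256-fold dose range (nine 2-fold or five 4-fold steps up to the top dose). Adherent lines were fixed and stained with the nucleic acid dye Syto60, suspension lines read with resazurin; signal relative to control wells, capped at 0 and 100%. One two-parameter sigmoid per drug and line, fitted in a mixed model over all curves with the slope shared within a line.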

Bicalutamide = compound: CC(O)(CS(=O)(=O)c1ccc(F)cc1)C(=O)Nc1ccc(C#N)c(C(F)(F)F)c1 [Bicalutamide]; details: top dose inferred
Description: as §1

T0901317 = compound: O=S(=O)(c1ccccc1)N(CC(F)(F)F)c1ccc(C(O)(C(F)(F)F)C(F)(F)F)cc1 [T0901317]; details: top dose 10.24 µM; top dose inferred
Description: as §1

Nilotinib = compound: Cc1cn(-c2cc(NC(=O)c3ccc(C)c(Nc4nccc(-c5cccnc5)n4)c3)cc(C(F)(F)F)c2)cn1 [Nilotinib]; details: top dose 2 µM
Description: as §1

AUY922 = compound: CCNC(=O)c1noc(-c2cc(C(C)C)c(O)cc2O)c1-c1ccc(CN2CCOCC2)cc1 [AUY922]; details: top dose 0.256 µM; top dose inferred
Description: as §1

KIN001-270 = compound: Cc1ccc(Nc2cc(-c3cccc(N4C(=O)c5ccccc5C4=O)c3)ncn2)cc1NS(C)(=O)=O [KIN001-270]; details: top dose 20 µM; top dose inferred
Description: as §1

MP470 = compound: S=C(NCc1ccc2c(c1)OCO2)N1CCN(c2ncnc3c2oc2ccccc23)CC1 [MP470]; details: top dose 20 µM; top dose inferred
Description: as §1

LFM-A13 = compound: C/C(O)=C(\C#N)C(=O)Nc1cc(Br)ccc1Br [LFM-A13]; details: top dose 16 µM; top dose inferred
Description: as §1

TW-37 = compound: CC(C)c1ccccc1Cc1cc(C(=O)Nc2ccc(S(=O)(=O)c3ccccc3C(C)(C)C)cc2)c(O)c(O)c1O [TW-37]; details: top dose 5 µM
Description: as §1

[1] = top dose 1.024 µM, screen: GDSC drug entry 150
[2] = top dose 10 µM, screen: GDSC drug entry 1502

Cell Line | AUC (Gemcitabine) | IC50 (Gemcitabine) | AUC (Bicalutamide; [1]) | IC50 (Bicalutamide; [1]) | AUC (Bicalutamide; [2]) | IC50 (Bicalutamide; [2]) | AUC (T0901317) | IC50 (T0901317) | AUC (Nilotinib) | IC50 (Nilotinib) | AUC (AUY922) | IC50 (AUY922) | AUC (KIN001-270) | IC50 (KIN001-270) | AUC (MP470) | IC50 (MP470) | AUC (LFM-A13) | IC50 (LFM-A13) | AUC (TW-37) | IC50 (TW-37)
SW948 (large intestine, adherent) | 0.921 | > 1.02 µM | 0.978 | > 1.02 µM | 0.764 | 5.35 µM | 0.976 | > 10.2 µM | 0.976 | > 2 µM | 0.969 | > 0.256 µM | 0.963 | > 20 µM | 0.91 | > 20 µM | 0.982 | > 16 µM | 0.932 | > 5 µM
RPMI-7951 (melanoma, adherent) | 0.171 | 0.00669 µM | 0.987 | > 1.02 µM | – | – | 0.969 | > 10.2 µM | 0.987 | > 2 µM | 0.39 | 0.00807 µM | 0.96 | > 20 µM | 0.919 | > 20 µM | 0.947 | > 16 µM | 0.677 | 0.956 µM
HuCCT1 (biliary tract, adherent) | 0.351 | 0.0235 µM | 0.98 | > 1.02 µM | 0.98 | > 10 µM | 0.983 | > 10.2 µM | 0.971 | > 2 µM | 0.479 | 0.014 µM | 0.979 | > 20 µM | 0.98 | > 20 µM | 0.949 | > 16 µM | 0.541 | 0.41 µM
KYSE-510 (oesophagus, adherent) | 0.017 | < 0.004 µM | 0.991 | > 1.02 µM | 0.977 | > 10 µM | 0.992 | > 10.2 µM | 0.987 | > 2 µM | 0.427 | 0.0105 µM | 0.992 | > 20 µM | 0.977 | > 20 µM | 0.992 | > 16 µM | 0.409 | 0.185 µM
NY (osteosarcoma, adherent) | 0.414 | 0.0374 µM | 0.989 | > 1.02 µM | 0.97 | > 10 µM | 0.989 | > 10.2 µM | 0.985 | > 2 µM | 0.556 | 0.0227 µM | 0.987 | > 20 µM | 0.985 | > 20 µM | 0.971 | > 16 µM | 0.436 | 0.21 µM
HT-1197 (bladder, adherent) | 0.812 | 0.676 µM | 0.983 | > 1.02 µM | 0.938 | > 10 µM | 0.984 | > 10.2 µM | 0.985 | > 2 µM | 0.515 | 0.0177 µM | 0.984 | > 20 µM | 0.98 | > 20 µM | 0.922 | > 16 µM | 0.8 | 2.95 µM
CHSA8926 (chondrosarcoma, adherent) | 0.98 | > 1.02 µM | 0.966 | > 1.02 µM | 0.961 | > 10 µM | 0.967 | > 10.2 µM | 0.97 | > 2 µM | 0.978 | > 0.256 µM | 0.98 | > 20 µM | 0.969 | > 20 µM | 0.979 | > 16 µM | 0.589 | 0.607 µM
SW1783 (glioma, adherent) | 0.055 | < 0.004 µM | 0.991 | > 1.02 µM | – | – | 0.981 | > 10.2 µM | 0.991 | > 2 µM | 0.345 | 0.00623 µM | 0.991 | > 20 µM | 0.977 | > 20 µM | 0.99 | > 16 µM | 0.451 | 0.232 µM
Calu-3 (lung adenocarcinoma, adherent) | 0.358 | 0.0233 µM | 0.97 | > 1.02 µM | 0.972 | > 10 µM | 0.982 | > 10.2 µM | 0.978 | > 2 µM | 0.646 | 0.0452 µM | 0.97 | > 20 µM | 0.983 | > 20 µM | 0.955 | > 16 µM | 0.666 | 1.03 µM
SCC-4 (head and neck, adherent) | 0.686 | 0.235 µM | 0.982 | > 1.02 µM | 0.978 | > 10 µM | 0.983 | > 10.2 µM | 0.965 | > 2 µM | 0.607 | 0.0333 µM | 0.976 | > 20 µM | 0.935 | > 20 µM | 0.942 | > 16 µM | 0.654 | 0.911 µM
Hs683 (glioma, adherent) | 0.438 | 0.0431 µM | 0.981 | > 1.02 µM | 0.984 | > 10 µM | 0.972 | > 10.2 µM | 0.98 | > 2 µM | 0.557 | 0.023 µM | 0.977 | > 20 µM | 0.858 | 16.7 µM | 0.967 | > 16 µM | 0.589 | 0.55 µM
LU-135 (small cell lung carcinoma, suspension) | 0.179 | 0.0088 µM | 0.979 | > 1.02 µM | 0.99 | > 10 µM | 0.992 | > 10.2 µM | 0.97 | > 2 µM | 0.447 | 0.0118 µM | 0.972 | > 20 µM | 0.925 | > 20 µM | 0.992 | > 16 µM | 0.56 | 0.443 µM
SK-N-SH (neuroblastoma, adherent) | 0.222 | 0.01 µM | 0.987 | > 1.02 µM | 0.986 | > 10 µM | 0.984 | > 10.2 µM | 0.973 | > 2 µM | 0.477 | 0.0138 µM | 0.977 | > 20 µM | 0.945 | > 20 µM | 0.968 | > 16 µM | 0.399 | 0.165 µM

IC50 is the fitted dose that halves viability relative to control wells, and lower means more sensitive; a fit beyond the top or the lowest dose is shown as a bound at that dose. AUC is the area under the same curve over the 256-fold range up to the top dose, as a fraction; values near 1 show little effect. For some of these results: Any top dose called inferred was derived from the fitted curves, not read from the paper. For some of these results: Drugs with an entry number were screened twice under separate entries, and the two screens often disagree.
